Test results from the supplement of paper PMC12217912.
Some of the results follow. Sequences were assembled here from the parent chain. Values near 0.05 are background.

B1: TEV protease; numbered along this chain (parent)
chain: MGESLFKGPRDYNPISSSICHLTNESDGHTTSLYGIGFGPFIITNKHLFRRNNGTLVVQSLHGVFKVKDTTTLQQHLVDGRDMIIIRMPKDFPPFPQKLKFREPQREERICLVTTNFQTKSMSSMVSDTSCTFPSGDGIFWKHWIQTKDGQCGSPLVSTRDGFIVGIHSASNFTNTNNYFTSVPKNFMELLTNQEAQQWVSGWRLNADSVLWGGHKVFMVKPEEPFQPVKEATQL

Variants of: B1
Experiment: raw area under fraction-flipped curve 0-4 h after induction (AUC4h, not background-subtracted), DNA-recorder readout of cleavage of the substrate (dimensionless); higher = more cleavage of the substrate by the protease variant
Settings: temperature: 34 °C; time window: 0-4 h after rhamnose induction
Method: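 In vivo DNA recorder in E. coli TOP10(DE3) ΔrhaA at 34 °C. Each TEVp single-site mutant (parent TEVp 0) is paired with a single-site variant of the 7-mer TEVs (canonical ENLYFQ|S). The substrate sits between flexible linkers in a Bxb1-sfGFP-TEVs-SsrA fusion, so cleavage stabilises Bxb1 and speeds flipping of a recombination array, read by NGS. The value is the raw area under the fraction-flipped curve over 0-4 h after rhamnose induction (AUC4h), with ≥20 reads per time point. It is not background-subtracted; inactive controls average about 0.047.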
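Further: Bxb1 expression induced with 0.2% (w/v) L-rhamnose at OD600 near 0.5, cultures sampled hourly, flipped fraction per protease–substrate barcode pair counted by paired-end Illumina sequencing.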

| Variant | area with substrate ENLAFQS | area with substrate ENLCFQS | area with substrate ENLDFQS | area with substrate ENLEFQS | area with substrate ENLFFQS | area with substrate ENLHFQS | area with substrate ENLIFQS | area with substrate ENLKFQS | area with substrate ENLLFQS | area with substrate ENLMFQS | area with substrate ENLNFQS | area with substrate ENLPFQS | area with substrate ENLRFQS | area with substrate ENLSFQS | area with substrate ENLWFQS | area with substrate ENLQFQS | area with substrate ENLVFQS | area with substrate ENLGFQS | area with substrate ENLTFQS |
| --- | --- | --- | --- | --- | --- | --- | --- | --- | --- | --- | --- | --- | --- | --- | --- | --- | --- | --- | --- |
| I84D | 0.0335 | 0.0571 | 0.0515 | 0.0474 | 0.0518 | 0.0477 | 0.0459 | 0.0447 | 0.0477 | 0.039 | 0.0503 | 0.0641 | 0.0587 | 0.0446 | 0.0515 |  |  |  |  |
| L77C | 0.0779 | 0.0531 | 0.0708 | 0.0541 | 0.09 |  | 0.0548 | 0.0784 |  | 0.0644 | 0.0602 | 0.0627 | 0.0584 | 0.0443 |  | 0.0585 |  |  |  |
| F41H | 0.0554 |  | 0.0573 | 0.0561 | 0.0786 | 0.0636 | 0.0781 | 0.0633 | 0.0505 |  | 0.0659 |  | 0.0747 | 0.0599 | 0.059 |  |  |  |  |
| H62L | 0.0258 |  |  |  | 0.128 | 0.0899 | 0.0663 | 0.0977 |  |  | 0.0539 |  |  | 0.0701 |  | 0.0598 | 0.136 |  |  |
| R87S | 0.0659 | 0.0605 |  | 0.0732 | 0.0844 | 0.0559 |  |  | 0.0618 | 0.0759 | 0.0672 | 0.0499 | 0.0684 |  | 0.0577 |  | 0.0665 |  |  |
| R87F | 0.0609 |  | 0.0593 | 0.0543 | 0.0907 | 0.0304 |  | 0.0741 | 0.0481 |  | 0.0804 | 0.0609 | 0.0654 | 0.0763 |  | 0.0737 | 0.0813 |  |  |
| S26Y | 0.068 |  | 0.0615 |  | 0.0563 | 0.0638 |  |  | 0.0712 | 0.079 | 0.0617 |  |  | 0.0686 |  | 0.0629 |  | 0.0791 |  |
| Q74K | 0.097 |  | 0.0591 | 0.0773 | 0.0853 |  |  | 0.0851 |  |  | 0.0661 | 0.0528 | 0.0833 | 0.066 |  |  | 0.0638 |  |  |
| Q74M | 0.0642 |  | 0.0705 | 0.0844 | 0.0743 | 0.0663 | 0.0983 | 0.0698 | 0.0749 | 0.0643 | 0.0778 | 0.0665 | 0.0674 |  | 0.0655 | 0.0777 | 0.0831 | 0.0738 |  |
| Q74A | 0.0528 |  | 0.0609 | 0.0794 | 0.0777 |  |  |  | 0.0504 | 0.049 |  | 0.0522 |  | 0.0646 | 0.0913 | 0.0807 | 0.0733 |  | 0.0806 |
| K68H | 0.0636 | 0.084 |  | 0.0368 | 0.0829 | 0.0543 | 0.112 | 0.0626 | 0.0671 | 0.082 | 0.0575 | 0.0627 |  | 0.0733 | 0.0759 |  |  | 0.0571 | 0.0606 |
| K68W | 0.0599 |  | 0.0568 | 0.0523 | 0.0818 | 0.0184 |  |  | 0.0891 |  |  | 0.0458 | 0.0702 | 0.0549 | 0.0883 | 0.064 |  | 0.0657 |  |
| P40V | 0.0628 | 0.0702 | 0.056 | 0.0717 | 0.083 | 0.0653 |  | 0.0847 |  | 0.095 | 0.0543 |  | 0.0798 | 0.0561 |  |  | 0.106 | 0.03 |  |
| R51P | 0.0698 | 0.0659 | 0.062 | 0.0563 | 0.0582 | 0.0744 | 0.0658 | 0.0604 | 0.077 | 0.0602 | 0.0428 |  | 0.0686 | 0.0562 |  | 0.0615 |  |  |  |
| D27N | 0.0501 | 0.0937 | 0.058 |  | 0.0985 | 0.0696 |  | 0.0584 |  | 0.0668 |  | 0.0585 | 0.0387 | 0.0693 |  | 0.0536 |  |  |  |
| I15T | 0.0498 |  | 0.0407 | 0.0669 | 0.0813 | 0.0694 |  | 0.0727 | 0.0697 | 0.063 | 0.0676 | 0.0602 | 0.0556 | 0.0427 | 0.0706 | 0.0576 |  |  |  |
| I43Y | 0.0532 | 0.0782 | 0.0541 | 0.0435 | 0.0582 | 0.056 | 0.0682 | 0.075 | 0.0476 |  | 0.0654 | 0.0455 |  | 0.0422 |  |  |  | 0.051 |  |
| I42K | 0.0522 | 0.0592 | 0.0547 | 0.0539 | 0.0462 | 0.0406 | 0.0417 | 0.0489 |  | 0.0366 | 0.0505 | 0.0411 | 0.0458 | 0.0563 | 0.0443 | 0.044 | 0.0482 | 0.0527 | 0.0446 |
| L73H | 0.0481 |  | 0.04 | 0.0601 | 0.0559 | 0.0428 | 0.0572 | 0.0517 | 0.0775 | 0.0597 |  | 0.0363 | 0.0514 | 0.0549 |  |  | 0.0421 |  |  |
| L73N | 0.0495 | 0.0605 | 0.0598 |  | 0.064 |  | 0.0538 | 0.0659 | 0.043 |  | 0.0591 | 0.0621 | 0.0533 | 0.0469 | 0.0187 |  |  | 0.0511 |  |
| F38Q | 0.0665 | 0.0635 | 0.0643 | 0.0628 | 0.0922 | 0.0621 | 0.0886 | 0.0675 | 0.0667 |  | 0.0567 | 0.0534 | 0.0666 | 0.0568 | 0.0559 | 0.0719 | 0.0737 | 0.0591 |  |
| F38H | 0.0606 | 0.0631 | 0.0702 | 0.0743 | 0.0675 | 0.0611 | 0.082 |  | 0.0717 |  | 0.0669 | 0.0656 |  | 0.054 | 0.0775 | 0.0642 | 0.0938 |  |  |
| R50I | 0.0557 |  |  | 0.0592 |  |  | 0.131 |  |  |  |  | 0.0437 | 0.0982 | 0.0597 |  | 0.0279 | 0.0927 |  |  |
| R50G | 0.0644 | 0.0425 |  | 0.0619 | 0.0812 | 0.0692 |  | 0.0636 | 0.0569 |  | 0.0283 | 0.0643 | 0.0824 | 0.059 | 0.0871 |  | 0.0734 | 0.0736 |  |
| F65D | 0.0571 | 0.0654 | 0.0382 |  | 0.078 | 0.0623 |  | 0.0572 | 0.0617 |  |  | 0.0596 |  |  |  |  | 0.0856 |  |  |
| R81Y | 0.053 |  | 0.0668 | 0.0664 | 0.0671 | 0.0621 | 0.0816 | 0.0642 | 0.0662 |  | 0.0481 | 0.0487 | 0.116 | 0.0632 | 0.0584 | 0.0758 |  | 0.0674 |  |
| R81W | 0.0519 |  | 0.0668 | 0.077 | 0.0645 | 0.0681 |  | 0.0542 |  |  | 0.0753 | 0.0628 |  |  |  | 0.0513 | 0.063 |  |  |
